# Test results published in the supplement of paper PMC8728848.
# This is one part of the list.
# B1: Cohesin-hDC-ASGPR (Homo sapiens) (protein)
# chain: LDDLDAVRIKVDTVNAKPGDTVRIPVRFSGIPSKGIANCDFVYSYDPNVLEIIEIEPGDIIVDPNPDKSFDTAVYPDRKIIVFLFAEDSGTGAYAITKDGVFATIVAKVKEGAPNGLSVIKFVEVGGFANNDLVEQKTQFFDGGANVGDTTEPATPTTPVTTPTTTDDLDAASQNSKFQRDLVTLRTDFSNFTSNTVAEIQALTSQGSSLEETIASLKAEVEGFKQERQAGVSELQEHTTQKAHLGHCPHCPSVCVPVHSEMLLRVQQLVQDLKKLTCQVATLNNNASTEGTCCPVNWVEHQDSCYWFSHSGMSWAEAEKYCQLKNAHLVVINSREEQNFVQKYLGSAYTWMGLSDPEGAWKWVDGTDYATGFQNWKPGQPDDWQGHGLGGGEDCAHFHPDGRWNDDVCQRPYHWVCEAGLGQTSQESHHHHHH
# What was measured:
# Experiment in all cases: glycan array binding signal (z-score within array); higher = stronger binding
# Conditions in all cases: glycan notation: IUPAC condensed, linker removed
# [1] = biological target: Gal(b1-3)[Fuc(a1-4)]GlcNAc(b1-6)GalNAc
# How it was run: (§1)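 From the Consortium for Functional Glycomics database, 3228 arrays were curated, keeping only those whose protein sequence was available. Binding is given as a within-array Z-score averaged across arrays sharing a protein sequence and across linkers. Negative Z-scores can be read as non-binding.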
# [2] = biological target: Gal(b1-3)[GlcNAc(b1-6)]GalNAc
# How it was run: as §1
# [3] = biological target: Gal(b1-3)[Neu5Ac(a2-6)]GalNAc
# How it was run: as §1
# [4] = biological target: Gal(b1-3)[Neu5Ac(a2-6)]GlcNAc(b1-4)Gal(b1-4)Glc
# How it was run: as §1
# [5] = biological target: Gal(b1-3)[Neu5Ac(b2-6)]GalNAc
# How it was run: as §1
# Gal(b1-4)Gal = biological target: Gal(b1-4)Gal
# How it was run: as §1
# [6] = biological target: Gal(b1-4)GalNAc(a1-3)[Fuc(a1-2)]Gal(b1-4)GlcNAc
# How it was run: as §1
# [7] = biological target: Gal(b1-4)GalNAc(b1-3)[Fuc(a1-2)]Gal(b1-4)GlcNAc
# How it was run: as §1
# Gal(b1-4)Glc = biological target: Gal(b1-4)Glc
# How it was run: as §1
# Gal(b1-4)Glc6S = biological target: Gal(b1-4)Glc6S
# How it was run: as §1
# Gal(b1-4)GlcNAc = biological target: Gal(b1-4)GlcNAc
# How it was run: as §1
# [8] = biological target: Gal(b1-4)GlcNAc(a1-6)Gal(b1-4)GlcNAc
# How it was run: as §1
# Gal(b1-4)GlcNAc(b1-2)Man = biological target: Gal(b1-4)GlcNAc(b1-2)Man
# How it was run: as §1
# [9] = biological target: Gal(b1-4)GlcNAc(b1-2)Man(a1-3)Man(b1-4)GlcNAc(b1-4)GlcNAc
# How it was run: as §1
# [10] = biological target: Gal(b1-4)GlcNAc(b1-2)Man(a1-3)[Gal(b1-4)GlcNAc(b1-2)Man(a1-6)]Man(b1-4)GlcNAc(b1-4)GlcNAc
# How it was run: as §1
# [11] = biological target: Gal(b1-4)GlcNAc(b1-2)Man(a1-3)[Gal(b1-4)GlcNAc(b1-2)Man(a1-6)]Man(b1-4)GlcNAc(b1-4)[Fuc(a1-6)]GlcNAc
# How it was run: as §1
# [12] = biological target: Gal(b1-4)GlcNAc(b1-2)Man(a1-3)[Gal(b1-4)GlcNAc(b1-2)Man(a1-6)][Gal(b1-4)GlcNAc(b1-4)]Man(b1-4)GlcNAc(b1-4)[Fuc(a1-6)]GlcNAc
# How it was run: as §1
# [13] = biological target: Gal(b1-4)GlcNAc(b1-2)Man(a1-3)[Gal(b1-4)GlcNAc(b1-2)Man(a1-6)][GlcNAc(b1-4)]Man(b1-4)GlcNAc(b1-4)[Fuc(a1-6)]GlcNAc
# How it was run: as §1
# [14] = biological target: Gal(b1-4)GlcNAc(b1-2)Man(a1-3)[GlcNAc(b1-2)Man(a1-6)]Man(b1-4)GlcNAc(b1-4)GlcNAc
# How it was run: as §1
# [15] = biological target: Gal(b1-4)GlcNAc(b1-2)Man(a1-3)[GlcNAc(b1-4)][Gal(b1-4)GlcNAc(b1-2)Man(a1-6)]Man(b1-4)GlcNAc(b1-4)GlcNAc
# How it was run: as §1
# [16] = biological target: Gal(b1-4)GlcNAc(b1-2)Man(a1-3)[Man(a1-6)]Man(b1-4)GlcNAc(b1-4)GlcNAc
# How it was run: as §1
# [17] = biological target: Gal(b1-4)GlcNAc(b1-2)Man(a1-6)Man(b1-4)GlcNAc(b1-4)GlcNAc
# How it was run: as §1
# [18] = biological target: Gal(b1-4)GlcNAc(b1-2)Man(a1-6)[GlcNAc(b1-2)Man(a1-3)]Man(b1-4)GlcNAc(b1-4)GlcNAc
# How it was run: as §1
# [19] = biological target: Gal(b1-4)GlcNAc(b1-2)Man(a1-6)[Man(a1-3)]Man(b1-4)GlcNAc(b1-4)GlcNAc
# How it was run: as §1
# [20] = biological target: Gal(b1-4)GlcNAc(b1-2)[Gal(b1-4)GlcNAc(b1-4)]Man(a1-3)[Gal(b1-4)GlcNAc(b1-2)Man(a1-6)]Man(b1-4)GlcNAc(b1-4)GlcNAc
# How it was run: as §1
# [21] = biological target: Gal(b1-4)GlcNAc(b1-2)[Gal(b1-4)GlcNAc(b1-4)]Man(a1-3)[Gal(b1-4)GlcNAc(b1-2)[Gal(b1-4)GlcNAc(b1-6)]Man(a1-6)]Man(b1-4)GlcNAc(b1-4)GlcNAc
# How it was run: as §1
# [22] = biological target: Gal(b1-4)GlcNAc(b1-2)[Gal(b1-4)GlcNAc(b1-4)]Man(a1-3)[GlcNAc(b1-4)][Gal(b1-4)GlcNAc(b1-2)Man(a1-6)]Man(b1-4)GlcNAc(b1-4)GlcNAc
# How it was run: as §1
# [23] = biological target: Gal(b1-4)GlcNAc(b1-2)[Gal(b1-4)GlcNAc(b1-4)]Man(a1-3)[GlcNAc(b1-4)][Gal(b1-4)GlcNAc(b1-2)[Gal(b1-4)GlcNAc(b1-6)]Man(a1-6)]Man(b1-4)GlcNAc(b1-4)GlcNAc
# How it was run: as §1
# [24] = biological target: Gal(b1-4)GlcNAc(b1-2)[Gal(b1-4)GlcNAc(b1-6)]Man(a1-6)[Gal(b1-4)GlcNAc(b1-2)Man(a1-3)]Man(b1-4)GlcNAc(b1-4)GlcNAc
# How it was run: as §1
# [25] = biological target: Gal(b1-4)GlcNAc(b1-2)[Gal(b1-4)GlcNAc(b1-6)]Man(a1-6)[Gal(b1-4)GlcNAc(b1-2)Man(a1-3)]Man(b1-4)GlcNAc(b1-4)[Fuc(a1-6)]GlcNAc
# How it was run: as §1
# [26] = biological target: Gal(b1-4)GlcNAc(b1-2)[Gal(b1-4)GlcNAc(b1-6)]Man(a1-6)[GlcNAc(b1-4)][Gal(b1-4)GlcNAc(b1-2)Man(a1-3)]Man(b1-4)GlcNAc(b1-4)GlcNAc
# How it was run: as §1
# [27] = biological target: Gal(b1-4)GlcNAc(b1-2)[Gal(b1-4)GlcNAc(b1-6)]Man(a1-6)[GlcNAc(b1-4)][Gal(b1-4)GlcNAc(b1-2)[Gal(b1-4)GlcNAc(b1-4)]Man(a1-3)]Man(b1-4)GlcNAc(b1-4)[Fuc(a1-6)]GlcNAc
# How it was run: as §1
# [28] = biological target: Gal(b1-4)GlcNAc(b1-3)Gal(b1-3)GalNAc
# How it was run: as §1
# [29] = biological target: Gal(b1-4)GlcNAc(b1-3)Gal(b1-3)GlcNAc
# How it was run: as §1
# [30] = biological target: Gal(b1-4)GlcNAc(b1-3)Gal(b1-4)Glc
# How it was run: as §1
# [31] = biological target: Gal(b1-4)GlcNAc(b1-3)Gal(b1-4)GlcNAc
# How it was run: as §1
# [32] = biological target: Gal(b1-4)GlcNAc(b1-3)Gal(b1-4)GlcNAc(b1-2)Man(a1-3)[Gal(b1-4)GlcNAc(b1-3)Gal(b1-4)GlcNAc(b1-2)Man(a1-6)]Man(b1-4)GlcNAc(b1-4)GlcNAc
# How it was run: as §1
# [33] = biological target: Gal(b1-4)GlcNAc(b1-3)Gal(b1-4)GlcNAc(b1-2)Man(a1-3)[Gal(b1-4)GlcNAc(b1-3)Gal(b1-4)GlcNAc(b1-2)Man(a1-6)]Man(b1-4)GlcNAc(b1-4)[Fuc(a1-6)]GlcNAc
# How it was run: as §1
binder,measurement,setting,value
B1,glycan array binding signal (z-score),[1],2.08
same,glycan array binding signal (z-score),[2],0.863
same,glycan array binding signal (z-score),[3],-0.49
same,glycan array binding signal (z-score),[4],-0.513
same,glycan array binding signal (z-score),[5],-0.51
same,glycan array binding signal (z-score),Gal(b1-4)Gal,-0.49
same,glycan array binding signal (z-score),[6],-0.48
same,glycan array binding signal (z-score),[7],-0.392
same,glycan array binding signal (z-score),Gal(b1-4)Glc,-0.433
same,glycan array binding signal (z-score),Gal(b1-4)Glc6S,-0.475
same,glycan array binding signal (z-score),Gal(b1-4)GlcNAc,-0.456
same,glycan array binding signal (z-score),[8],-0.432
same,glycan array binding signal (z-score),Gal(b1-4)GlcNAc(b1-2)Man,2.57
same,glycan array binding signal (z-score),[9],-0.448
same,glycan array binding signal (z-score),[10],-0.447
same,glycan array binding signal (z-score),[11],-0.459
same,glycan array binding signal (z-score),[12],-0.477
same,glycan array binding signal (z-score),[13],-0.522
same,glycan array binding signal (z-score),[14],-0.293
same,glycan array binding signal (z-score),[15],-0.516
same,glycan array binding signal (z-score),[16],0.323
same,glycan array binding signal (z-score),[17],-0.479
same,glycan array binding signal (z-score),[18],0.081
same,glycan array binding signal (z-score),[19],-0.496
same,glycan array binding signal (z-score),[20],-0.523
same,glycan array binding signal (z-score),[21],-0.517
same,glycan array binding signal (z-score),[22],-0.518
same,glycan array binding signal (z-score),[23],-0.508
same,glycan array binding signal (z-score),[24],-0.452
same,glycan array binding signal (z-score),[25],-0.504
same,glycan array binding signal (z-score),[26],-0.478
same,glycan array binding signal (z-score),[27],-0.511
same,glycan array binding signal (z-score),[28],-0.502
same,glycan array binding signal (z-score),[29],-0.499
same,glycan array binding signal (z-score),[30],-0.457
same,glycan array binding signal (z-score),[31],-0.46
same,glycan array binding signal (z-score),[32],0.113
same,glycan array binding signal (z-score),[33],-0.279
